We go through 15 molecules from US20230093429A1 (NAVIGO PROTEINS, published 2023).

The Kd is a measure of binding affinity in units of concentration.

The target in assay [1] is T1, soluble part of fibroblast growth factor receptor 3 (sFGFR3) (human, UniProt P22607 24-375, biotinylated with Sulfo-NHS-Biotin where it was immobilized on the streptavidin chip (sites not given)).
T1 construct: also called soluble FGFR3; soluble form of FGFR3
T1 sequence: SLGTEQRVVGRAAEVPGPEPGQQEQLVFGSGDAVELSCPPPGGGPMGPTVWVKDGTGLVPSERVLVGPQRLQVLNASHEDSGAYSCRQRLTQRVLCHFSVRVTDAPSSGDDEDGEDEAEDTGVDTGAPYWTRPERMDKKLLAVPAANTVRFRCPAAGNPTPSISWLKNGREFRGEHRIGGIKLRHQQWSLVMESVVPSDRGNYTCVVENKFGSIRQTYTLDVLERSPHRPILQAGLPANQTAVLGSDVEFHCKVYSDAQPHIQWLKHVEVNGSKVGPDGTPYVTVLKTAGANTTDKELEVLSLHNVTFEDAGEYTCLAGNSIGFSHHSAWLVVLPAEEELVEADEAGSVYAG
The experiment in a line: SPR, BIAcore 3000, Langmuir 1:1 model; which partner was immobilized is not stated for this row. The text has this:
(§1) sFGFR3 was biotinylated with Sulfo-NHS-Biotin standard reagent and purified via size exclusion chromatography (Superdex 200). 500-1500 RU sFGFR3 (ON-ligand) was immobilized by injection on a Streptavidin coated CM-5 sensor chip (GE Healthcare). Alternatively, 500-1500 RU sFGFR binding protein (ON-ligand) was immobilized on a CM-5 sensor chip (GE Healthcare). The chip was equilibrated with SPR running buffer.
(§2) Upon binding, protein analyte was accumulated on the surface increasing the refractive index. This change in the refractive index was measured in real time and plotted as response or resonance units versus time. The analytes were applied to the chip in serial dilutions with a flow rate of 30 μl/min. The association was performed for 120 seconds and the dissociation for 360 seconds. After each run, the chip surface was regenerated with 30 μl regeneration buffer (10 mM Glycine) and equilibrated with running buffer.
(§3) Binding studies were carried out by the use of the BIAcore 3000 (GE Healthcare); data evaluation was operated via the BIAevaluation 3.0 software, provided by the manufacturer, by the use of the Langmuir 1:1 model (RI=0). Evaluated dissociation constants (KD) were standardized against the immobilized protein and indicated. Shown is the change in refractive index measured in real time and plotted as response or resonance unit [RU] versus time [sec]. Results are shown in FIG. 2 and in Table 3 and in Table 4. SEQ1 refers to sFGFR binding protein of SEQ ID NO: 1, SEQ2 refers to sFGFR binding protein of SEQ ID NO: 2, SEQ3 refers to sFGFR binding protein of SEQ ID NO: 3, etc. PAdelFc refers to the non-Ig-binding proteins of SEQ ID NO: 30, Cys=Cysteine.

Assay [2] has as its target T1, soluble part of fibroblast growth …. The experiment in a line: affinity chromatography breakthrough; 20 mg/ml ligand coupled to Praesto 85 epoxy activated resin, loaded with 1 mg/ml sFGFR3 at 6 min residence time. How it is done: DBC 10%. The resin with immobilized ligand was equilibrated in 1×PBS, pH 7.3. The dynamic binding capacity (DBC) was determined by the mass of 1 mg/ml injected sFGFR3 in 1×PBS pH 7.3 at 10% breakthrough at 6 min residence time.
20 mg/ml sFGFR3 binding protein was coupled to the resin with immobilized sFGFR3 binding protein for 3 h at 35° C. in the presence of 175 mg/ml crystalline Na₂SO₄, pH 8.5. 1 mg/ml sFGFR3 was loaded at 6 min residence time.

Assay [3] shares this target. The experiment in a line: SPR, BIAcore 3000, Langmuir 1:1 model; which partner was immobilized is not stated for this row.
Excerpt: as §1, §2, §3
This is another data set of the same source. In general terms: SPR reads the build-up and loss of mass on a sensor chip optically.

For assay [4] the target is unchanged. Description: SPR; fusion protein immobilized, sFGFR3 as analyte (FIG. 2B); binding protein CID206146 immobilized, sFGFR3 as analyte (FIG. 2B).
Excerpt: as §1, §2
(§4) Binding studies were carried out by the use of the BIAcore 3000 (GE Healthcare); data evaluation was operated via the BIAevaluation 3.0 software, provided by the manufacturer, by the use of the Langmuir 1:1 model (RI=0). Evaluated dissociation constants (KD) were standardized against the immobilized protein and indicated. Shown is the change in refractive index measured in real time and plotted as response or resonance unit [RU] versus time [sec]. […]

For assay [5] the target is unchanged. The experiment in a line: SPR, BIAcore 3000, Langmuir 1:1 model; sFGFR3 immobilized, fusion protein as analyte (FIG. 2A).
Excerpt: as §1, §2, §4

B1: CID206121 (PAdelFc-SEQ8-PAdelFc-Cys) (designed binder)
chain: IAAKFDEAQSAADSEILHLPNLTEEQRNAFRQSLSDDPSVSLEVLGEAQKLNDSQAPKIAAKFDEAQSAADSEILHLPNLTEYHRIQHRYWLVWDPSVSQFTLRDAQALNDWQAPKIAAKFDEAQSAADSEILHLPNLTEEQRNAFRQSLSDDPSVSLEVLGEAQKLNDSQAPKC
notes: Built from the printed domain order
Take B1: binding in assay [1] was characterised by a dissociation constant (Kd) of 15.7 nM.

B2: CID206079 (SEQ1-SEQ1-PAdelFc-PAdelFc-Cys) (designed binder)
chain: IAAKFDHKQSTADTIILELPNLTEEQRNAFRQSLSDDPSVSKEVLYEAIWLNWSQAPKIAAKFDHKQSTADTIILELPNLTEEQRNAFRQSLSDDPSVSKEVLYEAIWLNWSQAPKIAAKFDEAQQAADYEILHLPNLTEEQRNAFRQSLRDDPSVSLEVLGEAQKLNDSQAPKIAAKFDEAQQAADYEILHLPNLTEEQRNAFRQSLRDDPSVSLEVLGEAQKLNDSQAPKC
In the case of B2, the “Dynamic binding capacity 10% at 6 min residence time” value in assay [2] was 10.3 mg/mL. This molecule also showed a Kd in assay [3] of 118 nM.

B3: CID206081 (SEQ1-SEQ2-PAdelFc-PAdelFc-Cys) (designed binder)
chain: IAAKFDHKQSTADTIILELPNLTEEQRNAFRQSLSDDPSVSKEVLYEAIWLNWSQAPKIAAKFDQHQSTADEIILKLPNLTEEQRNAFRQSLSDDTSVSREVLYEALWLNASQAPKIAAKFDEAQQAADYEILHLPNLTEEQRNAFRQSLRDDPSVSLEVLGEAQKLNDSQAPKIAAKFDEAQQAADYEILHLPNLTEEQRNAFRQSLRDDPSVSLEVLGEAQKLNDSQAPKC
For B3, the Kd in assay [3] is 80.2 nM.

B4: CID206083 (SEQ2-PAdelFc-SEQ1-PAdelFc-Cys) (designed binder)
chain: IAAKFDQHQSTADEIILKLPNLTEEQRNAFRQSLSDDTSVSREVLYEALWLNASQAPKIAAKFDEAQQAADYEILHLPNLTEEQRNAFRQSLRDDPSVSLEVLGEAQKLNDSQAPKIAAKFDHKQSTADTIILELPNLTEEQRNAFRQSLSDDPSVSKEVLYEAIWLNWSQAPKIAAKFDEAQQAADYEILHLPNLTEEQRNAFRQSLRDDPSVSLEVLGEAQKLNDSQAPKC
Consider B4, for which the “Dynamic binding capacity 10% at 6 min residence time” value in assay [2] is 9.4 mg/mL. For the same molecule, the Kd in assay [3] turned out to be 10 nM.

B5: CID206078 (homotetramer of SEQ ID NO: 1 with C-terminal cysteine) (designed binder)
chain: IAAKFDHKQSTADTIILELPNLTEEQRNAFRQSLSDDPSVSKEVLYEAIWLNWSQAPKIAAKFDHKQSTADTIILELPNLTEEQRNAFRQSLSDDPSVSKEVLYEAIWLNWSQAPKIAAKFDHKQSTADTIILELPNLTEEQRNAFRQSLSDDPSVSKEVLYEAIWLNWSQAPKIAAKFDHKQSTADTIILELPNLTEEQRNAFRQSLSDDPSVSKEVLYEAIWLNWSQAPKC
Regarding B5, the “Dynamic binding capacity 10% at 6 min residence time” value in assay [2] worked out at 10.1 mg/mL. The dissociation constant Kd in assay [3] was found to be 56.4 nM.

B6: CID206142 (PAdelFc-SEQ4-PAdelFc-Cys) (designed binder)
chain: IAAKFDEAQSAADSEILHLPNLTEEQRNAFRQSLSDDPSVSLEVLGEAQKLNDSQAPKIAAKFDYIQHMADDYILQLRNLTEEQRNAFRQSLSDDPSVSMVVLYRADWLNEHQAPKIAAKFDEAQSAADSEILHLPNLTEEQRNAFRQSLSDDPSVSLEVLGEAQKLNDSQAPKC
notes: as for B1
In turn, B6 showed a Kd in assay [1] of 4.5 nM.

B7: CID206136 (PAdelFc-SEQ7-PAdelFc-Cys) (designed binder)
chain: IAAKFDEAQSAADSEILHLPNLTEEQRNAFRQSLSDDPSVSLEVLGEAQKLNDSQAPKIAAKFDQIQAMADQYILHLMNLTEEQRNAFRQSLSDDPSVSMIVLYKADWLNDKQAPKIAAKFDEAQSAADSEILHLPNLTEEQRNAFRQSLSDDPSVSLEVLGEAQKLNDSQAPKC
notes: as for B1
B7 had a Kd in assay [1] of 6.3 nM.

B8: CID206141 (PAdelFc-SEQ5-PAdelFc-Cys) (designed binder)
chain: IAAKFDEAQSAADSEILHLPNLTEEQRNAFRQSLSDDPSVSLEVLGEAQKLNDSQAPKIAAKFDYIQEMADKHILMLHNLTEEQRNAFRQSLSDDPSVSMLVLYKAHWLNQSQAPKIAAKFDEAQSAADSEILHLPNLTEEQRNAFRQSLSDDPSVSLEVLGEAQKLNDSQAPKC
notes: as for B1
With B8, in assay [1], the Kd amounted to 4.6 nM.

B9: CID206146 (PAdelFc-SEQ3-PAdelFc-Cys) (designed binder)
chain: IAAKFDEAQSAADSEILHLPNLTEEQRNAFRQSLSDDPSVSLEVLGEAQKLNDSQAPKIAAKFDYVQSMADAQILQLINLTEEQRNAFRQSLSDDPSVSMVVLYRADWLNEHQAPKIAAKFDEAQSAADSEILHLPNLTEEQRNAFRQSLSDDPSVSLEVLGEAQKLNDSQAPKC
notes: as for B1
As for B9, in assay [2], the “Dynamic binding capacity 10% at 6 min residence time” value came out at 11 mg/mL. Further, the Kd in assay [4] is 2.64 nM; in assay [3], 4.2 nM; in assay [1] it was 3.8 nM.

B10: CID206137 (PAdelFc-SEQ6-PAdelFc-Cys) (designed binder)
chain: IAAKFDEAQSAADSEILHLPNLTEEQRNAFRQSLSDDPSVSLEVLGEAQKLNDSQAPKIAAKFDDIQMMADAQILILYNLTEEQRNAFRQSLSDDPSVSLVVLYKADWLNRHQAPKIAAKFDEAQSAADSEILHLPNLTEEQRNAFRQSLSDDPSVSLEVLGEAQKLNDSQAPKC
notes: as for B1
Turning to B10, the affinity in assay [1], expressed as Kd, was 6.4 nM.

B11: CID204815 (PAdelFc-SEQ1-PAdelFc-Cys) (designed binder)
chain: IAAKFDEAQSAADSEILHLPNLTEEQRNAFRQSLSDDPSVSLEVLGEAQKLNDSQAPKIAAKFDHKQSTADTIILELPNLTEEQRNAFRQSLSDDPSVSKEVLYEAIWLNWSQAPKIAAKFDEAQSAADSEILHLPNLTEEQRNAFRQSLSDDPSVSLEVLGEAQKLNDSQAPKC
notes: as for B1
As to B11, the “Dynamic binding capacity 10% at 6 min residence time” value in assay [2] came out at 8.3 mg/mL. Further, the dissociation constant (Kd) in assay [5] was determined as 75 nM.

B12: CID204783 (PAdelFc-SEQ2-PAdelFc-Cys) (designed binder)
chain: IAAKFDEAQSAADSEILHLPNLTEEQRNAFRQSLSDDPSVSLEVLGEAQKLNDSQAPKIAAKFDQHQSTADEIILKLPNLTEEQRNAFRQSLSDDTSVSREVLYEALWLNASQAPKIAAKFDEAQSAADSEILHLPNLTEEQRNAFRQSLSDDPSVSLEVLGEAQKLNDSQAPKC
notes: as for B1
Take B12: in assay [3], the Kd was 239 nM.

B13: CID206080 (PAdelFc-SEQ1-SEQ1-PAdelFc-Cys) (designed binder)
chain: IAAKFDEAQQAADYEILHLPNLTEEQRNAFRQSLRDDPSVSLEVLGEAQKLNDSQAPKIAAKFDHKQSTADTIILELPNLTEEQRNAFRQSLSDDPSVSKEVLYEAIWLNWSQAPKIAAKFDHKQSTADTIILELPNLTEEQRNAFRQSLSDDPSVSKEVLYEAIWLNWSQAPKIAAKFDEAQQAADYEILHLPNLTEEQRNAFRQSLRDDPSVSLEVLGEAQKLNDSQAPKC
Take B13: the “Dynamic binding capacity 10% at 6 min residence time” value in assay [2] was 8.3 mg/mL. Moreover, the dissociation constant (Kd) in assay [3] amounted to 232 nM.

B14: CID206082 (SEQ1-PAdelFc-SEQ2-PAdelFc-Cys) (designed binder)
chain: IAAKFDHKQSTADTIILELPNLTEEQRNAFRQSLSDDPSVSKEVLYEAIWLNWSQAPKIAAKFDEAQQAADYEILHLPNLTEEQRNAFRQSLRDDPSVSLEVLGEAQKLNDSQAPKIAAKFDQHQSTADEIILKLPNLTEEQRNAFRQSLSDDTSVSREVLYEALWLNASQAPKIAAKFDEAQQAADYEILHLPNLTEEQRNAFRQSLRDDPSVSLEVLGEAQKLNDSQAPKC
Turning to B14, the “Dynamic binding capacity 10% at 6 min residence time” value in assay [2] is 8.9 mg/mL. In addition, the Kd in assay [3] was determined as 12.8 nM.

B15: CID206113 (PAdelFc-SEQ9-PAdelFc-Cys) (designed binder)
chain: IAAKFDEAQSAADSEILHLPNLTEEQRNAFRQSLSDDPSVSLEVLGEAQKLNDSQAPKNAASEDWAQFSAMYEIDHLPNLTMRQAIWFIHSLYHDPSVSKEVLGEAQKLNDSQAPKIAAKFDEAQSAADSEILHLPNLTEEQRNAFRQSLSDDPSVSLEVLGEAQKLNDSQAPKC
notes: as for B1
On to B15, for which, in assay [1], the Kd was determined as 15 nM.
